# Measured values from the supplement of paper PMC9174493.
# The other results are listed elsewhere or left out. Single values of this set are uncertain. Values with irradiation are relative to irradiated vehicle.
# Tested on: A549-Dual
# Experiment: ISRE reporter (Lucia luciferase) activity, viability-corrected, relative to vehicle (fold change vs vehicle); higher = more activation of STING-IRF / NF-kB immune response reporter
# Details: 10 µM; irradiation: 8 Gy/4 fr
row,Structure (SMILES),ISRE reporter
1,COC(=O)c1cc(OC)c2c(c1-c1c(CO)cc(OC)c3c1OCO3)OCO2 [Bicyclol],0.659
2,CCn1cc(C(=O)O)c(=O)c2cc(F)c(N3CCNC(C)C3)c(F)c21 (configuration not stated) [Lomefloxacin],0.649
3,CC(C)(C)C(=O)C(Oc1ccc(Cl)cc1)n1ccnc1 (configuration not stated) [Climbazole],0.814
4,COc1cc2nc(N3CCN(C(=O)C4COc5ccccc5O4)CC3)nc(N)c2cc1OC.CS(=O)(=O)O (configuration not stated) [Doxazosin Mesylate],1
5,O=C(O)/C=C(/CC(=O)O)C(=O)O [cis-Aconitic acid],0.94
6,CCn1cc(C(=O)O)c(=O)c2cc(F)c(N3CCN(C)CC3)cc21.CS(=O)(=O)O [Pefloxacin Mesylate],0.747
7,CCCCc1nc(Cl)c(CO)n1Cc1ccc(-c2ccccc2-c2nnn[nH]2)cc1.[KH] [Losartan Potassium (DuP 753)],0.592
8,C#CC1(O)CCC2C3CCC4=CCCCC4C3C(=C)CC21CC (configuration not stated) [Desogestrel],0.67
9,NC(=O)OCC(COC(N)=O)c1ccccc1 [Felbamate],0.744
10,C1=Cc2ccccc2Nc2ccccc21 [Iminostilbene],0.651
11,Cc1ncc(CO)c(CO)c1O.O=C1CCC(C(=O)O)N1 [Metadoxine],0.521
12,CO/N=C(\C(=O)NC1C(=O)N2C(C(=O)[O-])=C(COC(N)=O)CSC12)c1ccco1.[Na+] (configuration not stated) [Cefuroxime sodium],0.901
